Here are results for 173 sequences from publication PMC12135187, “A role for pH dynamics regulating transcription factor DNA-binding selectivity”.

The list shows a part of the results.

In the assay the target is T1, FOXC2 DBD WT (UniProt Q99958 72-172).
T1 sequence: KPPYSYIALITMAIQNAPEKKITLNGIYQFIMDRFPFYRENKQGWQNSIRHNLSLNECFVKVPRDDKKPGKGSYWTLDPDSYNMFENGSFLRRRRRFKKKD
Nature of the assay: SELEX-seq (GST pull-down, four rounds, 16-nt random library); pH 7.0; 20 mM HEPES, 140 mM KCl, 0.05 mM TCEP-HCl, pH 7.0, room temperature, 30 min; 2.5 uM GST-FOXC2 DBD, 0.25 uM DNA library; high values mean tight binding. The conditions noted are these: protein: recombinant; tags: N-terminal GST (pGEX-6P-2); dsDNA, one strand shown. Summed up:
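GST-tagged FOXC2 DNA-binding domain (E. coli-expressed, glutathione-purified) was incubated with a DNA library carrying a 16 bp randomized region, at 0.25 μM DNA and 2.5 μM protein, for 30 min at RT in 20 mM HEPES, 140 mM KCl, 0.05 mM TCEP–HCl, pH 7. Complexes were captured on glutathione Sepharose beads, washed, heat-eluted and PCR-amplified over four rounds. Initial and selected libraries were Illumina MiniSeq sequenced. Relative enrichment came from the Bioconductor SELEX R package.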
For the sequence TCCACA, the binding signal was 0.483 relative enrichment. As for ATCGAA, the binding signal was 0.405 relative enrichment.

On to AAAGTT, for which the binding signal is 0.3 relative enrichment. The figure for ACACCC is 0.429 relative enrichment. Next, TCGGTT: 0.326 relative enrichment; ATGACA: 0.288 relative enrichment. Next, CTTCTA: 0.588 relative enrichment; ATTCTA: 0.466 relative enrichment. AAACCT: the binding signal worked out at 0.289 relative enrichment. Next, AGGTTA: 0.238 relative enrichment. The figure for AAGTTA is 0.225 relative enrichment; for CAAAGA it is 0.341 relative enrichment. The figure for TTCCAA is 0.344 relative enrichment; for AGTCAT it is 0.491 relative enrichment. As for TCCTTT, the binding signal was 0.307 relative enrichment.

As to CCTCTG, the binding signal came to 0.61 relative enrichment. The figure for ACTATC is 0.412 relative enrichment; for CGATTA it is 0.41 relative enrichment; for AGTTCA it is 0.419 relative enrichment. The figure for AGTCAA is 0.416 relative enrichment. Next, GCCAAA: 0.402 relative enrichment; TGAACA: 0.291 relative enrichment; AACTTC: 0.432 relative enrichment. Take CAAGCA: the binding signal amounted to 0.489 relative enrichment. The figure for AAATGT is 0.266 relative enrichment. Take ACGACT: the binding signal was 0.561 relative enrichment. Next, ACACAC: 0.34 relative enrichment; CAACGA: 0.38 relative enrichment; ATACAT: 0.349 relative enrichment. The figure for ATCCAT is 0.477 relative enrichment. As to ATTACG, the binding signal came out at 0.417 relative enrichment. Next, CACCTG: 0.535 relative enrichment. The figure for AAATGG is 0.353 relative enrichment; for AAACAA it is 0.46 relative enrichment. Next, CTATTA: 0.334 relative enrichment; TTATAA: 0.214 relative enrichment; CTTTCA: 0.425 relative enrichment. Consider ACAAGC, for which the binding signal came to 0.428 relative enrichment. Next, TATCCC: 0.399 relative enrichment. On to AATATT, for which the binding signal turned out to be 0.661 relative enrichment. The figure for TGGTAA is 0.428 relative enrichment; for ACTGCA it is 0.407 relative enrichment.

On to ATCTTG, for which the binding signal amounted to 0.318 relative enrichment. The figure for AACTGC is 0.311 relative enrichment; for ATACTG it is 0.315 relative enrichment; for ACATGC it is 0.453 relative enrichment. The figure for TACTAA is 0.382 relative enrichment.

CCAATA: the binding signal stood at 0.297 relative enrichment.

As to AGTATG, the binding signal is 0.448 relative enrichment.

With CTTTAC, the binding signal is 0.315 relative enrichment. Next, ATGATA: 0.355 relative enrichment; ACACAT: 0.268 relative enrichment; CAACTG: 0.279 relative enrichment. Next, ACAGAC: 0.349 relative enrichment; CTTACT: 0.518 relative enrichment; ACACTA: 0.332 relative enrichment. The figure for CATACA is 0.446 relative enrichment.

CGTATA: the binding signal is 0.282 relative enrichment.

In the case of AAATAC, the binding signal is 0.444 relative enrichment. Turning to AACCTC, the binding signal turned out to be 0.374 relative enrichment.

On to ACACCG, for which the binding signal is 0.516 relative enrichment.

In the case of ATAGTC, the binding signal stood at 0.461 relative enrichment. The figure for AACGAT is 0.256 relative enrichment; for AACACA it is 0.372 relative enrichment; for CACCTT it is 0.48 relative enrichment. Next, ATCCAC: 0.528 relative enrichment.

Turning to AGTCTA, the binding signal is 0.54 relative enrichment. The figure for ACAACC is 0.38 relative enrichment; for ACCGCT it is 0.499 relative enrichment. Next, AACAGC: 0.298 relative enrichment. The figure for GGAAAA is 0.325 relative enrichment; for CAACAC it is 0.329 relative enrichment. With AAATAT, the binding signal worked out at 0.435 relative enrichment. The figure for AGATTG is 0.338 relative enrichment. The figure for CTTAAA is 0.401 relative enrichment. The figure for CTATTC is 0.423 relative enrichment; for AACACT it is 0.324 relative enrichment. Consider AGCACA, for which the binding signal stood at 0.277 relative enrichment. As for GCAAAC, the binding signal was 0.376 relative enrichment.

Regarding ATATAG, the binding signal amounted to 0.231 relative enrichment. Next, ACAGAT: 0.325 relative enrichment; ACTCTG: 0.394 relative enrichment. Next, ACCAAT: 0.297 relative enrichment; GTAACA: 0.311 relative enrichment; AGCCTT: 0.351 relative enrichment.

In the case of ATAAAG, the binding signal came to 0.295 relative enrichment. Next, AAGCGT: 0.342 relative enrichment; AACCAG: 0.382 relative enrichment; GCAATA: 0.37 relative enrichment. Next, AATCCC: 0.452 relative enrichment.

As for CTTACG, the binding signal was 0.579 relative enrichment. Next, TATCTC: 0.531 relative enrichment; CTAACA: 0.376 relative enrichment; ATATCA: 0.285 relative enrichment.

With ATCTAG, the binding signal turned out to be 0.559 relative enrichment.

Consider GAATCA, for which the binding signal stood at 0.552 relative enrichment.

On to ATCTCT, for which the binding signal amounted to 0.485 relative enrichment. The figure for CCCATT is 0.378 relative enrichment; for CATATA it is 0.261 relative enrichment. Turning to ATTACC, the binding signal came out at 0.418 relative enrichment. The figure for AATCGC is 0.406 relative enrichment; for CTCACA it is 0.358 relative enrichment; for CCTTTT it is 0.486 relative enrichment. The figure for AATAGC is 0.349 relative enrichment; for AAGTTC it is 0.33 relative enrichment; for AGTAAC it is 0.341 relative enrichment. The figure for AAAACG is 0.293 relative enrichment; for CCACTT it is 0.6 relative enrichment; for AACGCA it is 0.299 relative enrichment.

With CTACTG, the binding signal amounted to 0.62 relative enrichment. For AAACAG, the binding signal is 0.495 relative enrichment.

For GTTTGA, the binding signal amounted to 0.342 relative enrichment. Next, AACCCC: 0.411 relative enrichment.

For the sequence CATTAG, the binding signal is 0.407 relative enrichment. The figure for ATTCTC is 0.416 relative enrichment.

On to CTTATA, for which the binding signal was found to be 0.265 relative enrichment. Next, ATCTAA: 0.397 relative enrichment. Next, AACCGC: 0.458 relative enrichment.

As for ACCTCA, the binding signal worked out at 0.455 relative enrichment. The figure for CTCGTT is 0.356 relative enrichment; for TAGAAA it is 0.294 relative enrichment. Next, AGCAAA: 0.434 relative enrichment; AATGTC: 0.314 relative enrichment; TAGATA: 0.349 relative enrichment.

Consider ACATTA, for which the binding signal was 0.277 relative enrichment. The figure for GTACAC is 0.467 relative enrichment.

In the case of ATTGTA, the binding signal stood at 0.324 relative enrichment. Next, CAACTC: 0.262 relative enrichment; ACACAA: 0.35 relative enrichment. The figure for CATCAC is 0.536 relative enrichment; for CTGCAA it is 0.304 relative enrichment.

Consider CGACAA, for which the binding signal is 0.388 relative enrichment.

Turning to ATTTCC, the binding signal was found to be 0.389 relative enrichment. The figure for GCTATA is 0.243 relative enrichment. Next, TCTTCA: 0.58 relative enrichment. The figure for ATAGAG is 0.433 relative enrichment; for CAGTTA it is 0.307 relative enrichment; for ACTCCT it is 0.417 relative enrichment. Consider CATTGA, for which the binding signal was found to be 0.325 relative enrichment. For CAAGAA, the binding signal was determined as 0.359 relative enrichment. Next, TGACAA: 0.337 relative enrichment. For TACAGC, the binding signal stood at 0.344 relative enrichment. In the case of ACAGTC, the binding signal stood at 0.418 relative enrichment. Next, AAGTTG: 0.237 relative enrichment. For CTACTA, the binding signal is 0.483 relative enrichment. For the sequence ACGAAA, the binding signal is 0.388 relative enrichment. Turning to CATTGG, the binding signal stood at 0.413 relative enrichment. Next, TAACTA: 0.345 relative enrichment.

On to TCTAAC, for which the binding signal is 0.304 relative enrichment. Next, ACAACG: 0.242 relative enrichment. Next, GGAATA: 0.423 relative enrichment; GGTTAA: 0.292 relative enrichment.

In the case of TCAACA, the binding signal is 0.333 relative enrichment.

For TCTCAT, the binding signal came to 0.37 relative enrichment. Next, TAGCAA: 0.292 relative enrichment; AAGTAA: 0.451 relative enrichment. Turning to AACATC, the binding signal was 0.392 relative enrichment. Next, GCACAA: 0.291 relative enrichment; AGGTAA: 0.427 relative enrichment.

On to TTGCAC, for which the binding signal is 0.349 relative enrichment. The figure for ATGATG is 0.505 relative enrichment; for CCTTTA it is 0.295 relative enrichment; for ATCAGC it is 0.434 relative enrichment. Next, AAAACT: 0.264 relative enrichment. The figure for ACAAAG is 0.306 relative enrichment. As for ACAATG, the binding signal was 0.338 relative enrichment. The figure for ATTCAA is 0.335 relative enrichment; for CAAGTA it is 0.449 relative enrichment. Next, TTCTAG: 0.58 relative enrichment; ATTAGG: 0.356 relative enrichment; GTATAC: 0.34 relative enrichment. Next, ATAATA: 0.285 relative enrichment. As for TCAACT, the binding signal is 0.324 relative enrichment.
